Experimental data taken from the supplement of paper PMC8728848.
The other results are listed elsewhere or left out.

Columns and labels:
Experiment in all cases: glycan array binding signal (z-score within array); higher = stronger binding
Conditions in all cases: glycan notation: IUPAC condensed, linker removed
[1] = biological target: Neu5Ac(a2-3)Gal(b1-4)GlcNAc(b1-3)Gal(b1-4)GlcNAc(b1-3)Gal(b1-4)GlcNAc
Outline: (§1)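 Negative Z-scores can be read as non-binding. The Z-score is calculated within each array and then averaged across arrays of one protein sequence at different concentrations or buffers and across linkers. Arrays, 3228 in all, were curated from the Consortium for Functional Glycomics database and kept only where the protein sequence was available.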

[2] = biological target: Neu5Ac(a2-3)Gal(b1-4)GlcNAc(b1-3)Gal(b1-4)GlcNAc(b1-3)Gal(b1-4)GlcNAc(b1-2)Man(a1-3)[Neu5Ac(a2-3)Gal(b1-4)GlcNAc(b1-3)Gal(b1-4)GlcNAc(b1-3)Gal(b1-4)GlcNAc(b1-2)Man(a1-6)]GalNAc
Outline: as §1

[3] = biological target: Neu5Ac(a2-3)Gal(b1-4)GlcNAc(b1-3)Gal(b1-4)GlcNAc(b1-3)GalNAc
Outline: as §1

[4] = biological target: Neu5Ac(a2-3)Gal(b1-4)GlcNAc(b1-3)Gal(b1-4)GlcNAc(b1-3)[Neu5Ac(a2-3)Gal(b1-4)GlcNAc(b1-3)Gal(b1-4)GlcNAc(b1-6)]GalNAc
Outline: as §1

[5] = biological target: Neu5Ac(a2-3)Gal(b1-4)GlcNAc(b1-3)Gal(b1-4)GlcNAc(b1-6)[Gal(b1-3)]GalNAc
Outline: as §1

[6] = biological target: Neu5Ac(a2-3)Gal(b1-4)GlcNAc(b1-3)Gal(b1-4)[Fuc(a1-3)]GlcNAc
Outline: as §1

[7] = biological target: Neu5Ac(a2-3)Gal(b1-4)GlcNAc(b1-3)GalNAc
Outline: as §1

[8] = biological target: Neu5Ac(a2-3)Gal(b1-4)GlcNAc(b1-3)[Neu5Ac(a2-3)Gal(b1-4)GlcNAc(b1-6)]GalNAc
Outline: as §1

[9] = biological target: Neu5Ac(a2-3)Gal(b1-4)GlcNAc(b1-6)GalNAc
Outline: as §1

[10] = biological target: Neu5Ac(a2-3)Gal(b1-4)GlcNAc(b1-6)[Gal(b1-3)]GalNAc
Outline: as §1

[11] = biological target: Neu5Ac(a2-3)Gal(b1-4)GlcNAc(b1-6)[Neu5Ac(a2-3)Gal(b1-3)]GalNAc
Outline: as §1

[12] = biological target: Neu5Ac(a2-3)Gal(b1-4)GlcNAc6S
Outline: as §1

[13] = biological target: Neu5Ac(a2-3)Gal(b1-4)[Fuc(a1-3)]GlcNAc
Outline: as §1

[14] = biological target: Neu5Ac(a2-3)Gal(b1-4)[Fuc(a1-3)]GlcNAc(b1-2)Man
Outline: as §1

[15] = biological target: Neu5Ac(a2-3)Gal(b1-4)[Fuc(a1-3)]GlcNAc(b1-3)Gal
Outline: as §1

[16] = biological target: Neu5Ac(a2-3)Gal(b1-4)[Fuc(a1-3)]GlcNAc(b1-3)Gal(b1-4)GlcNAc
Outline: as §1

[17] = biological target: Neu5Ac(a2-3)Gal(b1-4)[Fuc(a1-3)]GlcNAc(b1-3)Gal(b1-4)[Fuc(a1-3)]GlcNAc(b1-3)Gal(b1-4)[Fuc(a1-3)]GlcNAc
Outline: as §1

[18] = biological target: Neu5Ac(a2-3)Gal(b1-4)[Fuc(a1-3)]GlcNAc(b1-3)GalNAc
Outline: as §1

[19] = biological target: Neu5Ac(a2-3)Gal(b1-4)[Fuc(a1-3)]GlcNAc(b1-6)[Gal(b1-3)]GalNAc
Outline: as §1

[20] = biological target: Neu5Ac(a2-3)Gal(b1-4)[Fuc(a1-3)]GlcNAc(b1-6)[Neu5Ac(a2-3)Gal(b1-3)]GalNAc
Outline: as §1

[21] = biological target: Neu5Ac(a2-3)Gal(b1-4)[Fuc(a1-3)]GlcNAc6S
Outline: as §1

[22] = biological target: Neu5Ac(a2-3)Gal6S(b1-4)GlcNAc
Outline: as §1

[23] = biological target: Neu5Ac(a2-3)Gal6S(b1-4)[Fuc(a1-3)]GlcNAc
Outline: as §1

[24] = biological target: Neu5Ac(a2-3)GalNAc
Outline: as §1

[25] = biological target: Neu5Ac(a2-3)GalNAc(b1-4)GlcNAc
Outline: as §1

[26] = biological target: Neu5Ac(a2-3)[GalNAc(b1-4)]Gal(b1-4)Glc
Outline: as §1

[27] = biological target: Neu5Ac(a2-3)[GalNAc(b1-4)]Gal(b1-4)GlcNAc
Outline: as §1

[28] = biological target: Neu5Ac(a2-3)[GalNAc(b1-4)]Gal(b1-4)GlcNAc(b1-3)GalNAc
Outline: as §1

[29] = biological target: Neu5Ac(a2-3)[Neu5Ac(a2-6)]GalNAc
Outline: as §1

[30] = biological target: Neu5Ac(a2-6)Gal
Outline: as §1

[31] = biological target: Neu5Ac(a2-6)Gal(b1-3)GlcNAc(b1-3)[Gal(b1-4)GlcNAc(b1-6)]Gal(b1-4)Glc
Outline: as §1

[32] = biological target: Neu5Ac(a2-6)Gal(b1-4)Glc
Outline: as §1

[33] = biological target: Neu5Ac(a2-6)Gal(b1-4)GlcNAc
Outline: as §1

[34] = biological target: Neu5Ac(a2-6)Gal(b1-4)GlcNAc(b1-2)Man
Outline: as §1

[35] = biological target: Neu5Ac(a2-6)Gal(b1-4)GlcNAc(b1-2)Man(a1-3)Man(b1-4)GlcNAc(b1-4)GlcNAc
Outline: as §1

[36] = biological target: Neu5Ac(a2-6)Gal(b1-4)GlcNAc(b1-2)Man(a1-3)[Gal(b1-4)GlcNAc(b1-2)Man(a1-6)]Man(b1-4)GlcNAc(b1-4)GlcNAc
Outline: as §1

[37] = biological target: Neu5Ac(a2-6)Gal(b1-4)GlcNAc(b1-2)Man(a1-3)[GlcNAc(b1-2)Man(a1-6)]Man(b1-4)GlcNAc(b1-4)GlcNAc
Outline: as §1

[38] = biological target: Neu5Ac(a2-6)Gal(b1-4)GlcNAc(b1-2)Man(a1-3)[GlcNAc(b1-4)][Neu5Ac(a2-6)Gal(b1-4)GlcNAc(b1-2)Man(a1-6)]Man(b1-4)GlcNAc(b1-4)GlcNAc
Outline: as §1

B1: PX14343A-bvu-539-29-539 (Bacteroides vulgatus) (protein)
chain: DSLTESSSNTFWQTPDDALMALASCYDALQSNQLYNSDQYSLGPLYMDCISDNGGHFNWSGWMEGYDMAMGIHTPSSSIIGSYWKDCYEVISRCNVLIANIDRVDMDASQKAIYQAEAKTIRALMYINLTMTYQDVPFLTAPLTIDEAECEKTDRAAIVAHVMTDLQDAAEVLPQNASSRGHITKGAALSLLGRVALYNEKWDDAIAAYKQVQGLGYSLDPSYAKLFTQSGETSPEIIFAVRYEGPGMSEGAAFNAHWNTPLEAMNGTIDLADAYYCKDGKPTTDTKIAELNGGGGLDVSKPNPAHFENRDPRLYSTLFVPGMLWNGKGGIDTSASNPYANVYGGAAASLSTVYVYKYFDPTDTSNSWDNGQDFYVVRYAEVLLSLAEAMVQKGGYVYSDVTALVNEVRQRADVNMPTVEEVEGTSLSKDELLEVIKHERRVELAFEGLRLFDLYRWKELDKAVANIENERTMYGLAYEARKFNGERDYVWPLPTAELDTNKKLVQHDLWK
Question: With B1 as the binder, how does the “glycan array binding signal (z-score)” value [1] read?
Answer: Its value is -0.325.

Question: What about the “glycan array binding signal (z-score)” value [2] of the same binder?
Answer: Its value is 8.35.

Question: What about the “glycan array binding signal (z-score)” value [3] of the same binder?
Answer: Its value is -0.174.

Question: And the “glycan array binding signal (z-score)” value [4]?
Answer: The value was -0.178.

Question: And the “glycan array binding signal (z-score)” value [5]?
Answer: The value was -0.244.

Question: And the “glycan array binding signal (z-score)” value [6]?
Answer: The value was -0.359.

Question: What about the “glycan array binding signal (z-score)” value [7] of the same binder?
Answer: The value was -0.371.

Question: And the “glycan array binding signal (z-score)” value [8]?
Answer: Its value is -0.306.

Question: What about the “glycan array binding signal (z-score)” value [9] of the same binder?
Answer: Its value is 0.089.

Question: What about the “glycan array binding signal (z-score)” value [10] of the same binder?
Answer: The value was -0.019.

Question: And the “glycan array binding signal (z-score)” value [11]?
Answer: The value was -0.294.

Question: What about the “glycan array binding signal (z-score)” value [12] of the same binder?
Answer: The value was -0.274.

Question: And the “glycan array binding signal (z-score)” value [13]?
Answer: Its value is -0.418.

Question: And the “glycan array binding signal (z-score)” value [14]?
Answer: Its value is -0.394.

Question: And the “glycan array binding signal (z-score)” value [15]?
Answer: The value was -0.206.

Question: What about the “glycan array binding signal (z-score)” value [16] of the same binder?
Answer: Its value is -0.125.

Question: What about the “glycan array binding signal (z-score)” value [17] of the same binder?
Answer: The value was -0.377.

Question: What about the “glycan array binding signal (z-score)” value [18] of the same binder?
Answer: The value was 0.081.

Question: And the “glycan array binding signal (z-score)” value [19]?
Answer: Its value is -0.24.

Question: And the “glycan array binding signal (z-score)” value [20]?
Answer: The value was -0.331.

Question: And the “glycan array binding signal (z-score)” value [21]?
Answer: The value was -0.063.

Question: What about the “glycan array binding signal (z-score)” value [22] of the same binder?
Answer: The value was -0.08.

Question: What about the “glycan array binding signal (z-score)” value [23] of the same binder?
Answer: The value was -0.337.

Question: And the “glycan array binding signal (z-score)” value [24]?
Answer: Its value is -0.487.

Question: What about the “glycan array binding signal (z-score)” value [25] of the same binder?
Answer: The value was -0.142.

Question: And the “glycan array binding signal (z-score)” value [26]?
Answer: The value was -0.311.

Question: What about the “glycan array binding signal (z-score)” value [27] of the same binder?
Answer: The value was -0.227.

Question: And the “glycan array binding signal (z-score)” value [28]?
Answer: The value was -0.351.

Question: And the “glycan array binding signal (z-score)” value [29]?
Answer: Its value is -0.379.

Question: And the “glycan array binding signal (z-score)” value [30]?
Answer: The value was 0.087.

Question: What about the “glycan array binding signal (z-score)” value [31] of the same binder?
Answer: The value was -0.319.

Question: And the “glycan array binding signal (z-score)” value [32]?
Answer: Its value is -0.177.

Question: What about the “glycan array binding signal (z-score)” value [33] of the same binder?
Answer: Its value is -0.03.

Question: And the “glycan array binding signal (z-score)” value [34]?
Answer: Its value is -0.173.

Question: What about the “glycan array binding signal (z-score)” value [35] of the same binder?
Answer: Its value is -0.254.

Question: What about the “glycan array binding signal (z-score)” value [36] of the same binder?
Answer: Its value is 0.601.

Question: And the “glycan array binding signal (z-score)” value [37]?
Answer: Its value is -0.315.

Question: What about the “glycan array binding signal (z-score)” value [38] of the same binder?
Answer: Its value is 0.041.
